PubChem BioAssay AID485294 (National Center for Advancing Translational Sciences (NCATS), 2010)
Out of some 370,000 compounds screened, about 150 (0.041%) were called active. Inconclusive means that the source gave no clear call. Such entries were picked first, then a sample of the others. The call rests on the fitted dose curve; in most records, active means well fitted inhibition curve with a large enough effect; inconclusive means small, poorly fitted or top-dose-only effect; inactive means flat fitted curve, though single readings scatter. Potencies of inconclusive entries are left out as doubtful fits.

target: Beta-lactamase (Escherichia coli (strain K12)) (UniProt P00811); assay: qHTS Inhibitors of AmpC Beta-Lactamase (assay with detergent); settings: AmpC hydrolysis of nitrocefin, absorbance 480 nm, 0.01% Triton; activity change, negative = inhibition: at 114 µM (top of the series); further: nearly all actives have a fitted effect of over 25% in size;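 on activity change, negative = inhibition: 0% = no-compound wells and -100% = no-enzyme wells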
Chain of UniProt P00811 (P00811 whole entry, looked up): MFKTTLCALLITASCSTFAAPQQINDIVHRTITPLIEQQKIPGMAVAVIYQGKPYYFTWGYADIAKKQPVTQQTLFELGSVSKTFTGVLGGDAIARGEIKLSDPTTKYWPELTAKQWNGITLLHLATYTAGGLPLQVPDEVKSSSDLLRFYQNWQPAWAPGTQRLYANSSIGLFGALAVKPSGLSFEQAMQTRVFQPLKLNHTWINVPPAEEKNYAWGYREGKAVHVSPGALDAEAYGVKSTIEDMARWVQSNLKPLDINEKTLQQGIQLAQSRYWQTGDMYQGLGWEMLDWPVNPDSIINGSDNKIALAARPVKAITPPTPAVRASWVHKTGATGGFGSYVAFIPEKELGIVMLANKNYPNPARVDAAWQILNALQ
In short: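 AmpC (5.3 nM in the dispensed reagent) in 20 mM phosphate pH 7.0 with 0.01% (detergent screen) or 0.0001% Triton X-100 was preincubated with compounds for 15 min at room temperature. Nitrocefin was then added from an 800 uM solution, and hydrolysis was followed at 480 nm.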
Potency means the concentration at half of the fitted maximal effect; tags describe the fitted curve by direction and shape.

| SMILES | activity change, negative = inhibition | Potency |
| --- | --- | --- |
| CCOC(=O)c1c(-c2ccccc2)csc1NC(=O)c1cccc(N2C(=O)CCC2=O)c1 | inactive: -10.1% | – |
| O=C(Nc1ccc(O)cc1)/C(=C/c1ccco1)NC(=O)c1ccccc1 | – | inconclusive [inhibitor, full curve, poor fit] |
| O=[N+]([O-])c1cc(S(=O)(=O)NCCN2CCOCC2)ccc1Sc1nnnn1-c1ccccc1 | – | inconclusive [inhibitor, full curve] |
| CC(C)OCCCn1c(-c2ccc(Br)cc2)c[nH]c1=S | – | inconclusive [inhibitor, partial curve, poor fit] |
| CSc1nc(C)c2cc(C)oc2n1 | – | inconclusive [inhibitor, full curve, poor fit] |
| CCCCC(=O)NC(c1ccco1)c1cc(Cl)c2cccnc2c1O (configuration not stated) | inactive: -4.12% | – |
| COc1cccc(N=Nc2c(C)[nH]n(-c3ccccc3)c2=O)c1 | – | inconclusive [inhibitor, full curve, poor fit] |
| Clc1ccc(N2CCN(Cc3c[nH]c4ncccc34)CC2)cc1 | – | inconclusive [inhibitor, full curve, poor fit] |
| O=C(CSc1nccn1-c1ccc(F)cc1)NCc1ccc(F)cc1 | – | inconclusive [inhibitor, full curve] |
| Cc1cc(NC(=O)c2cncc(Br)c2)no1 | – | inconclusive [inhibitor, partial curve, poor fit] |
| CC1(C)CC2CC(C)(CN2C(=O)COC(=O)c2ccc(Cl)cc2N)C1 (configuration not stated) | – | inconclusive [inhibitor, full curve, poor fit] |
| COCC(C)NC(=O)CSc1nc2cc(S(=O)(=O)N3CCCCC3)ccc2o1 (configuration not stated) | – | inconclusive [inhibitor, full curve, poor fit] |
| COC(=O)C1=C(C)NC(=O)C1(NC(=O)c1ccc(Cl)cc1)C(F)(F)F (configuration not stated) | inactive: -2.63% | – |
| CSc1cccc(NC(=O)CNC(=O)c2ccc3c(c2)OCO3)c1 | – | inconclusive [inhibitor, full curve, poor fit] |
| Cc1ccc2c(c1)C1CN(C)CCC1N2C(=S)NC(=O)c1ccc(Cl)cc1Cl (configuration not stated) | – | inconclusive [inhibitor, partial curve, poor fit] |
| CC(C)(C)[C@@H]1C=C(C(=O)NCc2ccccc2)O[C@H](OCc2ccc(CO)cc2)C1 | inactive: -5.22% | – |
| CCC(C)N(C(=O)CSc1nnc(C)n1C)C1CCS(=O)(=O)C1 (configuration not stated) | – | inconclusive [inhibitor, partial curve, poor fit] |
| Cc1cc(NC(=O)C(C)SCC(=O)Nc2cc(Cl)ccc2N2CCN(C)CC2)no1 (configuration not stated) | – | inconclusive [inhibitor, full curve, poor fit] |
| CCOC(=O)c1c(S(=O)(=O)N2CCC(C)CC2)c(C)n(C)c1C | inactive: 2.75% | – |
| Cc1ccc(CN(Cc2ccccc2)C(=S)NCC(=O)NCc2cccnc2)o1 | – | inconclusive [inhibitor, partial curve, poor fit] |
| CCC(C)[C@H](NC(=O)[C@@H]1CSC2c3ccccc3C(=O)N21)C(=O)NCc1ccco1 (some centres not stated) | inactive: -4.67% | – |

| SMILES | activity change, negative = inhibition | Potency |
| --- | --- | --- |
| OCCN1CCN(c2nc(NCc3ccco3)c3ccccc3n2)CC1 | – | inconclusive [inhibitor, partial curve, poor fit] |
| CCOc1cc2[nH]c(=S)n(CC3CCCN3CC)c(=O)c2cc1OCC (configuration not stated) | – | inconclusive [inhibitor, full curve, poor fit] |
| Cc1ccc(S(=O)(=O)N2N=C3CCCCC3C2(O)C(F)(F)F)cc1 (configuration not stated) | – | inconclusive [inhibitor, full curve, poor fit] |
| N#Cc1ccc(Cn2c(=O)c(C#N)c3n(c2=O)CCC3)cc1 | – | inconclusive [inhibitor, partial curve, poor fit] |
| Cn1c(Cn2c(=O)sc3ccccc32)nnc1SCC(=O)NC1CCCC1 | – | inconclusive [inhibitor, partial curve, poor fit] |
| COc1ccc(NC(=O)NNC(=O)COc2ccc3ccccc3c2)cc1OC | – | inconclusive [inhibitor, partial curve, poor fit] |
| Cc1csc(NC(=O)CSc2nnc(Cc3cccn3C)n2-c2ccc(F)cc2)n1 | – | inconclusive [inhibitor, partial curve, poor fit] |
| COc1cc(CN2CCc3ccc(NC(=O)CCc4ccccc4OC)cc3C2)ccc1O | inactive: -0.644% | – |
| CC(=O)c1sc(NC(=O)C(C)(C)C)nc1C | – | inconclusive [inhibitor, full curve, poor fit] |
| Cc1nc2ncnn2c(C)c1CCC(=O)NCCCN1CCN(c2cccc(Cl)c2)CC1 | inactive: -0.634% | – |
| O=C(Nc1ccccc1C(=O)N1CCCCCC1)c1cccc(S(=O)(=O)N2CCOCC2)c1 | inactive: 0.0835% | – |
| CC(=O)Cc1nsc(NC(=O)c2cc(-c3ccc(Cl)c(Cl)c3)oc2C)n1 | – | inconclusive [inhibitor, partial curve, poor fit] |
| Cc1cc(C(=O)CSc2nc(N)cc(=O)[nH]2)c(C)n1-c1cccc(F)c1 | – | inconclusive [inhibitor, full curve, poor fit] |
| CCS(=O)(=O)N1CCC(c2nc(-c3ccc(C)cc3)no2)CC1 | inactive: -11.1% | – |
| O=C(CN1CCOCC1)Nc1ccc2c(c1)CCC2 | inactive: -0.778% | – |
| O=C(CN1C(=O)CCC1=O)Nc1nc(-c2nc3ccccc3s2)cs1 | – | inconclusive [inhibitor, full curve, poor fit] |
| O=c1oc2ccccc2n1CCCOc1ccccc1Cl | inactive: 3.34% | – |
| CCOC(=O)c1cccc(NS(=O)(=O)c2ccc(NC(C)=O)cc2)c1 | inactive: 4.18% | – |
| CCN(CC)S(=O)(=O)c1ccc(NC(=O)c2cc(C(=O)OC)cc([N+](=O)[O-])c2)cc1 | inactive: -2.85% | – |
| COc1ccc(CCNC(=O)CSc2n[nH]c(N)n2)cc1OC | – | inconclusive [inhibitor, full curve, poor fit] |
| Cc1ccc(C(=O)NCc2cccnc2)o1 | – | inconclusive [inhibitor, full curve] |
